# ± gives the standard deviation of the averaged measurements. Over roughly 2,900 compounds, “IRF Lucia reporter activity, fold change vs agonist alone” has its median near 0.9; the highest 2% begin near 2.8. Some of the results follow.
# Tests used:
# RAW-Dual [1] = assay: IRF Lucia reporter activity, fold change vs agonist alone; higher = enhanced IRF activity; settings: library stock concentration (final ~1000-fold dilution): 10 mM, agonist: MPLA (TLR4) […]
# How it was run: (§1)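 RAW-Dual macrophages (50,000 cells/well in DMEM, 384-well plates) received 50 nL of library stock by pin tool, then a PRR agonist 1 h later, and were kept at 37 °C, 5% CO2. After 20 hours, supernatant was read for IRF by QuantiLuc luminescence and for NF-κB by QuantiBlue absorbance at 620 nm. Reporter activity is fold change over agonist-alone wells. Cytotoxic wells had IncuCyte confluency below 70% of agonist controls in both mask sets.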
# RAW-Dual [2] = assay: IRF Lucia reporter activity, fold change vs agonist alone; cytotoxicity flag (confluency mask): not cytotoxic; higher = enhanced IRF activity
# How it was run: as §1
# RAW-Dual [3] = assay: IRF Lucia reporter activity, fold change vs agonist alone; cytotoxicity flag (confluency mask): cytotoxic (confluency <70% of control); higher = enhanced IRF activity
# How it was run: as §1
# [4] = cytotoxicity flag (confluency mask): not cytotoxic
# [5] = agonist: 3'3'-cGAMP (STING) 10 ug/mL
smiles,measurement,setting,value
O=C(O)c1ccc(Br)c(O)c1,IRF Lucia reporter activity,RAW-Dual [1]; [4],1.07
O=C(O)c1ccc(Br)c(O)c1 (library stock concentration (final ~1000-fold dilution): 10 mM),IRF Lucia reporter activity,RAW-Dual [2]; [5],1.03
same,IRF Lucia reporter activity,RAW-Dual [2]; agonist: LPS (TLR4) 0.1 ug/mL,1.4
O=C(O)CCNc1cc(N2CCc3ccccc3CC2)nc(-c2ccccn2)n1,IRF Lucia reporter activity,RAW-Dual [1]; [4],1.03
O=C(O)CCNc1cc(N2CCc3ccccc3CC2)nc(-c2ccccn2)n1 (library stock concentration (final ~1000-fold dilution): 10 mM),IRF Lucia reporter activity,RAW-Dual [2]; [5],0.949
same,IRF Lucia reporter activity,RAW-Dual [2]; agonist: LPS (TLR4) 0.1 ug/mL,1.33
Cl.Cl.Fc1ccc(C(c2ccc(F)cc2)N2CCN(C/C=C/c3ccccc3)CC2)cc1 (library stock concentration (final ~1000-fold dilution): 10 mM),IRF Lucia reporter activity,RAW-Dual [2]; [5],0.836
same,IRF Lucia reporter activity,RAW-Dual [2]; agonist: LPS (TLR4) 0.1 ug/mL,1.22
Cl.Cl.Fc1ccc(C(c2ccc(F)cc2)N2CCN(C/C=C/c3ccccc3)CC2)cc1,IRF Lucia reporter activity,RAW-Dual [1]; [4],1.06
CC(C)c1cnn2c(NCc3ccccc3)cc(NCCCCCCN)nc12.Cl (library stock concentration (final ~1000-fold dilution): 10 mM),IRF Lucia reporter activity,RAW-Dual [3]; [5],0.218
same,IRF Lucia reporter activity,RAW-Dual [3]; agonist: LPS (TLR4) 0.1 ug/mL,0.0402
CC(C)c1cnn2c(NCc3ccccc3)cc(NCCCCCCN)nc12.Cl,IRF Lucia reporter activity,RAW-Dual [1]; cytotoxicity flag (confluency mask): cytotoxic (confluency <70% of control),0.153
CCNC(=O)c1cc2c(-c3cc(C(C)(C)O)ccc3Oc3c(C)cc(F)cc3C)cn(C)c(=O)c2[nH]1 (library stock concentration (final ~1000-fold dilution): 10 mM),IRF Lucia reporter activity,RAW-Dual [3]; [5],0.444
same,IRF Lucia reporter activity,RAW-Dual [3]; agonist: LPS (TLR4) 0.1 ug/mL,0.163
Cc1cc([N+](=O)[O-])ccc1NS(=O)(=O)c1cc(Cl)ccc1Cl (library stock concentration (final ~1000-fold dilution): 10 mM),IRF Lucia reporter activity,RAW-Dual [2]; [5],0.804
same,IRF Lucia reporter activity,RAW-Dual [2]; agonist: LPS (TLR4) 0.1 ug/mL,1
Cc1cc([N+](=O)[O-])ccc1NS(=O)(=O)c1cc(Cl)ccc1Cl,IRF Lucia reporter activity,RAW-Dual [1]; [4],1.17
C=CC(=O)N1CCCC(n2nc(-c3ccc(Oc4ccccc4)cc3)c3c(N)ncnc32)C1 (centres undefined) (library stock concentration (final ~1000-fold dilution): 10 mM),IRF Lucia reporter activity,RAW-Dual [2]; [5],0.137
same,IRF Lucia reporter activity,RAW-Dual [2]; agonist: LPS (TLR4) 0.1 ug/mL,0.366
C=CC(=O)N1CCCC(n2nc(-c3ccc(Oc4ccccc4)cc3)c3c(N)ncnc32)C1 (centres undefined),IRF Lucia reporter activity,RAW-Dual [1]; [4],0.458
COc1ccc(COc2ccc(Cc3cnc(N)nc3N)cc2OC)cc1 (library stock concentration (final ~1000-fold dilution): 10 mM),IRF Lucia reporter activity,RAW-Dual [2]; [5],0.88
same,IRF Lucia reporter activity,RAW-Dual [2]; agonist: LPS (TLR4) 0.1 ug/mL,0.982
CCN(CC)CCNC(=O)c1c(C)[nH]c(/C=C2\C(=O)Nc3ccc(F)cc32)c1C.O=C(O)CC(O)C(=O)O,IRF Lucia reporter activity,RAW-Dual [1]; [4],0.0244
CCN(CC)CCNC(=O)c1c(C)[nH]c(/C=C2\C(=O)Nc3ccc(F)cc32)c1C.O=C(O)CC(O)C(=O)O (library stock concentration (final ~1000-fold dilution): 10 mM),IRF Lucia reporter activity,RAW-Dual [2]; [5],0.017
same,IRF Lucia reporter activity,RAW-Dual [2]; agonist: LPS (TLR4) 0.1 ug/mL,0.0168
Cc1ccc(C(=O)c2cc(O)c(O)c([N+](=O)[O-])c2)cc1,IRF Lucia reporter activity,RAW-Dual [1]; [4],0.858
Cc1ccc(C(=O)c2cc(O)c(O)c([N+](=O)[O-])c2)cc1 (library stock concentration (final ~1000-fold dilution): 10 mM),IRF Lucia reporter activity,RAW-Dual [2]; [5],0.873
same,IRF Lucia reporter activity,RAW-Dual [2]; agonist: LPS (TLR4) 0.1 ug/mL,0.99
CC1(C)OC2CC(=O)OCC23C1CC(=O)C1(C)C3CCC2(C)C(c3ccoc3)OC(=O)C3OC321 (centres undefined) (library stock concentration (final ~1000-fold dilution): 10 mM),IRF Lucia reporter activity,RAW-Dual [2]; [5],1.11
same,IRF Lucia reporter activity,RAW-Dual [2]; agonist: LPS (TLR4) 0.1 ug/mL,0.885
CC1(C)OC2CC(=O)OCC23C1CC(=O)C1(C)C3CCC2(C)C(c3ccoc3)OC(=O)C3OC321 (centres undefined),IRF Lucia reporter activity,RAW-Dual [1]; [4],1.06
O=C([O-])c1ccccc1O.[Na+] (library stock concentration (final ~1000-fold dilution): 10 mM),IRF Lucia reporter activity,RAW-Dual [2]; [5],0.928 ± 0.1
same,IRF Lucia reporter activity,RAW-Dual [2]; agonist: LPS (TLR4) 0.1 ug/mL,1.03 ± 0.056
O=C([O-])c1ccccc1O.[Na+],IRF Lucia reporter activity,RAW-Dual [1]; [4],1.05 ± 0.019
CC(NCc1ccc(OCc2cccc(F)c2)cc1)C(N)=O.CS(=O)(=O)O (centres undefined),IRF Lucia reporter activity,RAW-Dual [1]; [4],0.619
CC(NCc1ccc(OCc2cccc(F)c2)cc1)C(N)=O.CS(=O)(=O)O (centres undefined) (library stock concentration (final ~1000-fold dilution): 10 mM),IRF Lucia reporter activity,RAW-Dual [2]; [5],0.779
same,IRF Lucia reporter activity,RAW-Dual [2]; agonist: LPS (TLR4) 0.1 ug/mL,0.957
C[N+]1(C)C2CC(OC(=O)C(O)(c3cccs3)c3cccs3)CC1C1OC12 (centres undefined) (library stock concentration (final ~1000-fold dilution): 10 mM),IRF Lucia reporter activity,RAW-Dual [2]; [5],0.978
same,IRF Lucia reporter activity,RAW-Dual [2]; agonist: LPS (TLR4) 0.1 ug/mL,1.08
C[N+]1(C)C2CC(OC(=O)C(O)(c3cccs3)c3cccs3)CC1C1OC12 (centres undefined),IRF Lucia reporter activity,RAW-Dual [1]; [4],1.02
O=C(N/N=C/c1ccc(O)c(O)c1)c1cc2ccccc2cc1O (library stock concentration (final ~1000-fold dilution): 10 mM),IRF Lucia reporter activity,RAW-Dual [2]; [5],0.0222
same,IRF Lucia reporter activity,RAW-Dual [2]; agonist: LPS (TLR4) 0.1 ug/mL,0.668
COC(C)Cn1c(=O)n(C)c2cnc3ccc(-c4cncc(C(C)(C)O)c4)cc3c21 (centres undefined) (library stock concentration (final ~1000-fold dilution): 10 mM),IRF Lucia reporter activity,RAW-Dual [2]; [5],0.277
same,IRF Lucia reporter activity,RAW-Dual [2]; agonist: LPS (TLR4) 0.1 ug/mL,0.648

# Reference: the supplement of paper PMC10037445
